In the supplement of paper PMC3334620:
In all, about 33,000 sequences were measured (“E-score (-0.5 to 0.5)”: median about -0.054, highest 2% from about 0.35 on). The list shows a part of the results.

Each sequence was assayed against T1, Stb5 (UniProt P38699) (assay: PBM E-score (8-mer binding enrichment) (E-score (-0.5 to 0.5)); higher = stronger / more preferred TF binding; most listed sequences are background and not binding sites). Conditions: protein concentration: 200 nM; construct: GST-full length.
T1 sequence: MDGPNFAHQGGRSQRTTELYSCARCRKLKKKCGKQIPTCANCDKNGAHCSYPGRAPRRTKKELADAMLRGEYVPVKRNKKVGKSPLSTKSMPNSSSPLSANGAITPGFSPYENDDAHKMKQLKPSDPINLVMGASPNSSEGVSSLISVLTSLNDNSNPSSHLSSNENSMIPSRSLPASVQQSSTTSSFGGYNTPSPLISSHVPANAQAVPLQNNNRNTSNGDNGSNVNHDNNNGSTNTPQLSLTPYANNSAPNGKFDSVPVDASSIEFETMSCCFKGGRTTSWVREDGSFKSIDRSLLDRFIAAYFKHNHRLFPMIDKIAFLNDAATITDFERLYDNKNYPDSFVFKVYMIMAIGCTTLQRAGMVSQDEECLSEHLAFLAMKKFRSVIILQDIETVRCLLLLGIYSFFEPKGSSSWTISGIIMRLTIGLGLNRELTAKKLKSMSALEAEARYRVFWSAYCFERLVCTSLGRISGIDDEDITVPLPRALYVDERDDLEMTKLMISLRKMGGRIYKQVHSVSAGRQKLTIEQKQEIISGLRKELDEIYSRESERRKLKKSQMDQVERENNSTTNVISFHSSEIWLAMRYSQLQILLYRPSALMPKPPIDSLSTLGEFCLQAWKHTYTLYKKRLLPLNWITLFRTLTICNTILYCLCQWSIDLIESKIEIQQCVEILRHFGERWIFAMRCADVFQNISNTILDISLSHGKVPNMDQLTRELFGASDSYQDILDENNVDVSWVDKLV
Outline: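 E-scores (a modified Wilcoxon-Mann-Whitney statistic) were assigned by the Universal PBM Analysis Suite to every ungapped eight-base word pooled with its reverse complement. The input came from universal all-10-mer Agilent arrays made double-stranded by primer extension and probed with GST-tagged yeast transcription factors at about 100-200 nM. Fluorescent anti-GST detected bound protein, and masliner normalised the scans.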

Sequence | PBM E-score
ACCTTAGT | -0.162
CCCAACGA | -0.0919
CCAACGCA | 0.00504
TAAGCAGA | -0.126
AGACCTCA | -0.215
AACCTGAC | -0.256
AGGACTCA | -0.225
AGGTACTC | -0.242
CACGATCA | -0.266
CGCATGCC | 0.0316
ACCTGCGG | 0.234
AATGTCCT | -0.063
ATGGCTCA | -0.329
AGCTGAAA | -0.0824
ATGTGGGA | -0.15
GAACATTC | -0.161
GCTGTACA | -0.156
AATTTGCG | 0.00674
CGAGGGTC | 0.00967
GAGGCGAA | -0.0203
CTTGACAA | 0.0185
GGCCTGAC | 0.204
ACATTAGG | -0.128
GACAAGCA | -0.0877
AAGCTCGT | -0.157

Sequence | PBM E-score
GAGCGAGA | -0.0607
ATTCTTTC | 0.0717
CACTGGAA | -0.276
ACTGGAAA | -0.0915
CCGCAGGA | 0.163
CGAGCCTC | -0.0223
CGCCGATA | 0.36
ACGCCTCT | -0.306
ACGAAGGC | -0.132
ACCGAAGC | 0.155
ATCGCGCG | 0.179
AGGCGACC | -0.199
GATCATCA | -0.169
TCACCTGA | -0.147
ATCGATCA | -0.103
ACAGAAGT | -0.107
CCGTAAAC | 0.205
CCATGGAC | -0.0874
GCCAGCCC | -0.00461
ACGAAGGA | -0.113
ACTGTAGG | -0.137
CTTACGTC | -0.226
TCATTAAA | 0.093
AAAGGTCG | -0.012
TCTTAAAA | -0.144

Sequence | PBM E-score
GTTATGGA | -0.0466
CTTAGTAA | -0.126
TCCATGCA | 0.013
AGCACGCT | -0.296
ACTCTACA | -0.153
CACTCCGA | 0.242
CCTCTGCC | -0.0836
ACCAATAG | -0.105
AATGCCCG | 0.362
AAGCACCA | -0.12
AGTGCTTG | -0.237
CGAATGTC | 0.0399
ATTTGCCG | 0.31
AACATACG | 0.00618
CTCTCCTA | -0.269
GAATAGCC | 0.102
GAAGGACC | 0.123
AGTGGTTG | -0.0565
ACGGCGTG | 0.208
CGAGTTTC | -0.0887
GAGGCTAC | -0.189
AATAGGCA | 0.00142
ATGAACAA | -0.0777
AACAGCGA | 0.235
AGCTGTAT | -0.208

Sequence | PBM E-score
GGACGCGA | -0.168
TAGCAACA | -0.0498
CCGCTAGC | 0.224
ACCTTACC | -0.13
CGTATCCA | -0.225
GAATAGTA | -0.0545
AACACGCC | 0.0462
GGATAAGA | -0.0778
AGTAAATC | -0.1
GAAATGTC | 0.0422
AAGATTGA | -0.153
CGGACAAG | 0.193
CACTCCCG | -0.00235
CTAAGAAG | -0.115
GAGCGACC | -0.0787
CAAACCCA | -0.274
AGCATTAG | -0.0678
ATCGTTGA | -0.11
ATCGTCAA | -0.12
CACCTTAG | -0.116
ACCCACGT | -0.257
CTCTCTGC | -0.168
AAACGGTA | 0.261
ACATTTAT | -0.0897
GCTCTTTA | 0.0664

Sequence | PBM E-score
ACTGAGAA | 0.0797
GCAACCCC | 0.201
ACGGACTC | 0.297
CGGGATTA | 0.471
ATAAATGG | -0.128
ATGACGAG | -0.0671
TACTGGGA | -0.155
CGAAAGAA | 0.0281
AGTGCGAC | 0.0565
AGCGAGGG | -0.189
ACCCGAGG | -0.086
TGTGTTAA | -0.145
ATGGTTTA | -0.0842
CCATTATA | 0.0945
CTCGTTGC | -0.218
GTACACAA | -0.136
GTACAACA | -0.126
CGCGTTCA | -0.00418
ATACATGC | 0.06
CATGCCGG | 0.344
GCAGGAAC | -0.0959
CTATGACA | 0.0495
CGTCTTGA | 0.0557
ACGATGGC | -0.146
AACAGAAA | -0.0585

Sequence | PBM E-score
AATTATCC | 0.224
ACATGGTA | -0.0696
ACGCCATC | -0.0194
CAAGGGCA | -0.356
ATGAGACC | 0.0282
ATCAAAGG | -0.132
ATTCATGA | -0.0343
CCACCGAA | 0.117
GTGTAATA | 0.209
ATGGCCAA | -0.167
GCGGGCCA | 0.0443
CTCTTGTC | -0.198
AGATTTAG | 0.0604
TACATTAA | -0.206
ATACCAAA | -0.0367
CCCCGCCC | 0.43
AACTTCTC | -0.137
CCGATTTC | 0.21
ACAGATAG | -0.145
ATGCACTC | -0.139
GCTGGGTA | -0.213
AACAGTAT | -0.21
CCATTGAG | -0.00205
ACTTATGG | 0.0742
AACGTTCC | 0.013

Sequence | PBM E-score
GGAGTTTA | 0.362
CTTGAGAA | -0.194
ATTTCGTA | -0.117
GTTGCCTA | -0.199
CTGCCGCC | 0.198
GACCATCA | 0.0409
CAAGTTGA | -0.113
AAAGTTAA | 0.0914
ACTTATAC | 0.166
AAGTAAGT | -0.0931
AACGGCAG | 0.107
GATCTCGC | -0.131
CAATTCTC | 0.0208
ATTGTGTC | -0.0554
GTTGGACA | -0.179
ATAGAAAG | 0.0164
ATACCGCG | 0.33
ATTTATTG | -0.0662
GAGCGCTC | -0.0134
TACTATGA | -0.12
AGTCGGAC | 0.398
ACTTCCCG | 0.144
AGTTAGGA | 0.0545
GGCTAGTA | -0.139
ACCCTCGT | -0.181

Sequence | PBM E-score
AATTGCGC | 0.117
CATGGTAA | -0.085
CTTTCCAC | 0.0653
ACGTATAC | -0.162
GTGCGACA | 0.0522
AGGAATGA | -0.0687
ACGCAAGT | -0.0285
AGTTAGTC | 0.168
CGCGGGAC | 0.266
CATGGCAC | 0.166
CGTGGGCA | -0.204
CGTATCGA | -0.144
CGTGAGAA | 0.107
AACATTGA | 0.0134
CCACTCGA | -0.306
CACTTCCG | 0.00228
GCTAGTGA | -0.226
CGGCGCAG | 0.0247
AGTACCAC | -0.0243
ACCCTCAT | -0.315
CCGGTTAG | 0.235
ATACTCCG | 0.371
AACGAGTG | -0.183
TAACAGGA | -0.0687
CGAAATGC | -0.103

Sequence | PBM E-score
GCCGATAC | 0.304
CACGCATC | 0.0305
ACCCCCCT | -0.245
CAACAATA | -0.106
TACTGTCA | -0.151
AGGATTCA | -0.212
CTACCGAA | 0.0544
CTCCAAGA | -0.418
CTGGAGTC | -0.228
CGCCTAAC | 0.116
ACCGGCAT | 0.337
CCAGTGAC | -0.278
ATATGAAC | 0.00152
GTCACGGA | 0.195
CAGATTGG | -0.11
ATATGGGG | -0.00027
AAGATACA | -0.175
AAGAAGTA | -0.102
GGTCTGTA | 0.0136
